Source: the supplement of paper PMC3724861
This is one part of the list.

Test system: T1, Caupolican (Caup) homeodomain DNA-binding domain
T1 sequence: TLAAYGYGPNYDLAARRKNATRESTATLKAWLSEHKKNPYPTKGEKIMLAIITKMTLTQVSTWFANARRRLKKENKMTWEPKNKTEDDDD
Assay: PBM E-score (8-mer, recovered from the published 9-mer minima) (E-score (dimensionless, -0.5 to 0.5)); Drosophila protein; higher = stronger relative binding preference, active = 0.31 or more
In short: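 Caup's homeodomain DNA-binding domain (residues 214-303) was made by in vitro transcription and translation and applied at 100 nM to custom-designed protein binding microarrays. Each value is an enrichment score that gives relative binding preference for a short DNA word, with higher meaning stronger. The 8-mer values were recovered from published 9-mer scores, each of which was the minimum of its two constituent 8-mer scores. A cutoff of 0.31 marks candidate sites.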

| Sequence | PBM E-score |
| --- | --- |
| CCGGCCCG | inactive: -0.203 |
| ATAGGAAC | inactive: 0.105 |
| ATTACGGC | inactive: -0.0236 |
| GTTGGAAA | inactive: 0.0613 |
| GCTCATTA | inactive: -0.0168 |
| CGTACCCA | inactive: -0.101 |
| AGAATCTC | inactive: 0.0299 |
| TACGTTAA | inactive: 0.0692 |
| AATACTCT | inactive: 0.126 |
| ATCCCTCA | inactive: -0.0741 |
| CTAGCCAA | inactive: -0.0769 |
| AGTGCGAA | inactive: 0.0169 |
| CATTTGCG | inactive: 0.00242 |
| ACGTCCAG | inactive: -0.0076 |
| AGAAGACT | inactive: 0.00281 |
| ATAATTTA | inactive: 0.167 |
| GAGTCACC | inactive: -0.149 |
| CGCTTGTA | active: 0.313 |
| CTATTGTA | inactive: 0.229 |
| AAAGGGAG | inactive: -0.15 |
| ACCTAGGA | ≥ -0.00584 |
| GCCGGCAA | inactive: -0.151 |
| ATATCTTA | inactive: 0.178 |
| ACACTGGG | inactive: 0.0164 |

| Sequence | PBM E-score |
| --- | --- |
| CAGCTAAC | inactive: 0.0113 |
| CCGATGTC | inactive: 0.165 |
| TCATCTCA | inactive: -0.0128 |
| GGAATGCC | inactive: -0.176 |
| AACTTACT | inactive: 0.0845 |
| ACGCCAGG | inactive: -0.156 |
| CCGCCTCC | inactive: -0.288 |
| AGCACCAG | inactive: -0.00722 |
| TAACGAGA | ≥ 0.15 |
| GCACCACA | inactive: -0.0694 |
| CGGTGGCA | inactive: -0.192 |
| AGATGTGC | inactive: 0.0218 |
| AAAACCAT | inactive: 0.102 |
| AAGTTCTA | inactive: -0.00833 |
| CGACCTTA | inactive: -0.0959 |
| AATAGGTA | inactive: 0.155 |
| ATACATGA | active: 0.4 |
| CGCCAAGA | inactive: -0.223 |
| ACCTGCAA | inactive: -0.023 |
| CAATTCTA | inactive: 0.0767 |
| AGCTGTAC | inactive: 0.125 |
| ATTCATGG | inactive: -0.039 |
| GCCGCTAA | inactive: -0.173 |
| CATTGAAA | inactive: 0.0811 |

| Sequence | PBM E-score |
| --- | --- |
| CCCATGGA | inactive: 0.021 |
| CACCGTGA | inactive: 0.00811 |
| ACGCCGCT | inactive: -0.134 |
| AAACCTAC | inactive: 0.126 |
| ACCCGCAG | inactive: -0.142 |
| AACATATT | active: ≥ 0.347 |
| GGTCATTA | inactive: 0.0303 |
| ATGATCAC | inactive: 0.142 |
| TCTTCTAA | inactive: 0.0484 |
| ACGCAAGC | inactive: 0.0155 |
| AGAACCAT | inactive: 0.0755 |
| TAATTTAA | inactive: 0.112 |
| GATCTGCA | inactive: -0.0796 |
| CATAGTCC | inactive: 0.0382 |
| CTTCTCTA | inactive: -0.0517 |
| AATACCTC | inactive: 0.00824 |
| AGCAGTTA | inactive: -0.0121 |
| AGAGTACC | inactive: 0.101 |
| ACTAAGGG | inactive: -0.0778 |
| AAGCCGCC | inactive: -0.241 |
| CTCAAGAA | inactive: -0.0293 |
| CCACTGCC | inactive: -0.171 |
| CTTCTAGC | inactive: -0.0818 |
| CATGGAAC | inactive: 0.0872 |

| Sequence | PBM E-score |
| --- | --- |
| GGATGAAA | inactive: -0.0306 |
| CCGAAGGC | inactive: -0.288 |
| AGATGGCC | inactive: -0.151 |
| GATAGCGC | inactive: -0.107 |
| ACTACTCG | ≥ 0.0893 |
| CGGCGTAC | inactive: -0.0593 |
| AACGCAAA | inactive: -0.0112 |
| ATAACGCG | inactive: 0.0282 |
| GCATTAAA | inactive: 0.155 |
| AGAAGTGA | inactive: 0.0244 |
| ATCTTAGC | inactive: -0.0153 |
| AACACCAT | ≥ 0.247 |
| ACAAAAAT | inactive: 0.202 |
| AATGGTCA | ≥ 0.146 |
| GCTGAATA | inactive: 0.0918 |
| TGCTAAAA | inactive: 0.0283 |
| CAATTCTG | inactive: -0.00857 |
| CGCGACCC | inactive: -0.2 |
| TCGACAGA | inactive: 0.072 |
| GATCGGCA | inactive: -0.0784 |
| CACTATCC | inactive: 0.0331 |
| CCGATGGC | inactive: -0.166 |
| AAAAAAGC | inactive: -0.0704 |
| GGGAGAAC | inactive: -0.124 |

| Sequence | PBM E-score |
| --- | --- |
| TAGATCGA | inactive: 0.0428 |
| AGCCCTTG | inactive: -0.0523 |
| GATTGCTA | inactive: 0.0183 |
| ACTTGCAA | inactive: 0.145 |
| AAGGTAAC | inactive: 0.089 |
| ATGGGCAA | ≥ -0.0275 |
| TGGGCACA | inactive: -0.127 |
| GTGTGAAC | inactive: 0.0865 |
| AACCCTGT | inactive: 0.104 |
| ATTGTTTG | inactive: 0.201 |
| TCAGTTCA | inactive: 0.025 |
| ACCAGCAT | ≥ 0.0668 |
| AGAATAGA | inactive: 0.076 |
| ACGCATTA | inactive: 0.094 |
| AGGATACT | inactive: -0.0169 |
| ATTTAGGG | inactive: 0.00282 |
| AACGTTCT | inactive: -0.024 |
| ATGCCATA | ≥ 0.128 |
| AGAGGGCT | inactive: -0.15 |
| CCGTCACC | inactive: -0.211 |
| ACATCAGG | inactive: 0.133 |
| CGGATGTC | inactive: 0.0941 |
| ACGGAAGT | inactive: -0.0425 |
| ACCATCCT | inactive: 0.0551 |

| Sequence | PBM E-score |
| --- | --- |
| TCTGTAAA | inactive: 0.0832 |
| ACCAAGGT | inactive: -0.0505 |
| CGCTGGGA | inactive: -0.154 |
| AAATATCG | inactive: 0.12 |
| TAGGAAGA | inactive: -0.0388 |
| GAGGCGCC | inactive: -0.271 |
| CGTTGTTA | inactive: 0.305 |
| CAACTACG | inactive: 0.152 |
| CGAGTACG | inactive: -0.00922 |
| AGTGTTGG | inactive: 0.014 |
| CACCCCAC | inactive: -0.0746 |
| AGCTCGGA | inactive: -0.128 |
| CAGGGACA | inactive: 0.0744 |
| GTATTTCA | inactive: 0.137 |
| CGCACGCA | inactive: -0.157 |
| TATGCGGA | inactive: -0.0186 |
| ACGGATTC | inactive: 0.0267 |
| GAGCTCAC | inactive: -0.177 |
| CAATGTGA | inactive: 0.187 |
| ATCTACAG | inactive: 0.158 |
| AGACGGGC | inactive: -0.193 |
| AAGTCTCT | inactive: -0.0709 |
| ACAGACAA | inactive: 0.289 |
| CCTACTTA | inactive: 0.0269 |
